Laboratory results: the RNAGym collection of RNA variant scans (doi:10.7554/elife.90254)
Read counts are not given, so values of variants with three or more changes are uncertain.

B1: OR4K15 (parent)
chain: GUUAACGGUCAUAGGCCAUGGAAACUAGGAGCACCAUUUCGCUGCCAGUGAAGAAAUGAACAAAGAAAAUCUGGGCCAGGCAGGCAUCAAAAGAAAUAGUCUUGCGCUCAACCAGAAAGUCUGUAAUCAUUUUAAGGGUA

Variants of: B1
Assay: self-cleavage, relative activity (ratio to wild type); higher = more cleavage; in vitro, sequencing; the parent is a self-cleaving ribozyme

| Variant | self-cleavage |
| --- | --- |
| GUUAACGGUCAUUGGCCAUGGAAACUAGGAGCACCAUUUCGCUGCCAGUGAAGAAAUGAACAAAGAAAAUCCGGGCCAGGCAGGCAUCAAAAGAAAUAGUCUUGCGCUCAACCAGAAAGUCCGUAAUCAUUUUAAGGGUA [A13U U72C U122C] | 0.26 |
| GUUAACGGUCAUAGGCCAUGGAAACUAGGAGCACCAUUUCGCUGCCAGUGGAGAAAUGAACAAAGAAAAUCUGGGCCAGGCAGGCAUCAAAAGAAAUAGUCUUGCGCUCAACCGGAAAGUCUGUAAUCGUUUUAAGGGUA [A51G A114G A129G] | 0.04 |
| GUUAACGGUCGUAGGCCAUGGAAACUAGGAGCACCAUUUCGCUGCCAGUGAAGAAAUGAACAAAGAAAAUCUGGGCCGGGCAGGCAUCAAAAGAAAUAGUCUUGCGCUCAACCAGAAAGUCUGUAAUCAUUUUAAGGGUG [A11G A78G A140G] | 0.25 |
| GUUAACGGUCAUAGGCCAUGGAAACUAGGAGCACCAUUUCGCCGCCAGUGAAGAAAUGAACAAAGAAAAUCUGGGCCAGGCAGGCAUCAAGAGAAAUAGUCUUGCGCUCAACCAGAAAGUCUGUGAUCAUUUUAAGGGUA [U43C A91G A125G] | 0.15 |
| GUUAACGGUCAUAGGCCACGGAAACUAGGAGCACCGUUUCGCUGCCAGUGAAGAAAUGAACAAAGAAAAUCUGGGCCGGGCAGGCAUCAAAAGAAAUAGUCUUGCGCUCAACCAGAAAGUCUGUAAUCAUUUUAAGGGUA [U19C A36G A78G] | 0.38 |
| GUUAACGGUCAUAGGCCAUGGAAACUUGGAGCACCAUUUCGCUGCCAGUGAAGAAAUGAACAAAGAAAAUCUGGGCCAGGCAGGCAUCAAAAGAAAUAGUCUUGCGCUCAGCCAGAAAGUCUGUAAUCGUUUUAAGGGUA [A27U A111G A129G] | 0 |
| GCUGACGGUCGUAGGCCAUGGAAACUAGGAGCACCAUUUCGCUGCCAGUGAAGGAAUGAACAAAGAAAAUCUGGGCCGGGCAGGCAUCUAAAGAAAUAGUCUUGCGCUCAACCAGAAAGUCUGUAAUCAUUCUAAGGGUA [U2C A4G A11G A54G A78G A89U U132C] | 0.36 |
| GUUAACGGUCAUAGGCCAUGGAAACUAGGAGCACCAUUUCGCUGCCAGUGAAGAAAUGAACAAAGAAAAUCUGGGCCAGGCAGGCAUCAAAAGAAAUAGUCUUGCGCUCAACCAGAAAGUCCGUAAUCCUCUUAAGGGUA [U122C A129C U131C] | 0.82 |
| GUUAACGGUCAUAGGCCAUGGAAACUAGGAGCACCAUUUCGCUGCCAGUAAAGAAAUGAACAAAGAAAAUCUGGGCCAGGCAGGCAUCAAAAGAAAUAGUCUUGCGCUCAACCAGAGAGUCCGUAAUCAUUUUAAGGGUA [G50A A117G U122C] | 1.24 |
| GUUAACGGUCAUAGGCCACGGGAACUAGGAGCACCAUUUCGCUGCCAGUGAAGAAAUGAACAAAGAAAAUCUGGGCCAGGCAGGCAUCGAAAGAAAUAGUCUUGCGCUCAACCAGAAAGUCUGUAAUCAUUUUAAGGGUA [U19C A22G A89G] | 0.48 |
| GUUAACGGUCAUAGGCCACGGAAACUAGGAGCACCAUUUCGCUGCCAGUGAAGAAAUGAACAAAGAAAUUCAGGGCCAGGCAGGCAUCAAAAGAAAUAGUCUUGCGCUCAACCAGAAAGUCCGUAAUCAUUUUAAGGGUA [U19C A69U U72A U122C] | 0.27 |
| GUUAACGGUCAUAGGCCAUGGAAACUAGGAGCACCACUUCGCUGCCAGUGAAGAAAUGAACAAAGAAAAUCUGGGCCAGGCAGGCACCAAAAGAAAUAGUCUUGCGCUCCACCAGAAAGACUGUAAUCAUUUUAAGGGUA [U37C U87C A110C U120A] | 0.04 |
| GUUAACGGUCAUAGGCCAUGGAAACUAGGAGCACCAUUUCGCCGCCAGUGAGGAAAUGAACAAAGAAAAUCUGGGCCAGGCAGGCAUCAAAAGAAAUAGUCUUGCGCUCACCCAGAAAGUCUGUAAUCAUUUUAAGGGUA [U43C A52G A111C] | 0.02 |
| GUUAACGGUCAUAGGCCAUGGAAACUAGGAGCACCGUUUCGCCGCCAGUGUAGAAGUGAACAAAGAAAAUCUGGGCCAGGCAGGCAUCAAAAGAAAUAGUCUUGCGCUCAACCAGAAAGUCUGUAAUCAUUUUAAGGGUA [A36G U43C A51U A56G] | 1.79 |
| GUUAACGGUCACAGGCCAUGGAAACUAGGAGCACCAUUUCGCUGCCAGUGAAGAAACGAACAAAGAAAAUCUGGGCCUGGCAGGCGUCAAAAGAAAUUGUCUUGCGCUCAACCAGAAAGUCUGUAAUCAUUUUAAGGGUA [U12C U57C A78U A86G A98U] | 0.28 |
| GUUAACGGUCAUAGGCCGUGGAAACUAGGAGCACCAUUUCGCUGCCAGUGAAGAAAUGAACAAAGAAAGUCUGGGCCAGGCAGGCAUCAAAAGAAAUAGUCUCGCGCUCAACCAGAAAGUCUGUAAUCAUUUUAAGGGUA [A18G A69G U103C] | 1.47 |
| GUUAACGGUCAUAGGCCAUGGAAACUAGGAGCACCAUUUCGCUGCCAGUGAAGAAACGAACAAAGAAAAUCUGGGCCAGGCAGGCAUCUAAAGAAAUAGUCUUGCGCUCAACCGGAAAGUCUGUAAUCAUUUUAAGGGUA [U57C A89U A114G] | 0.24 |
| GUUAACGGUCAUAGGCCAUGGAAACUAGGAGCGCCAUUUCGCUGCCAGCGAAGAAAUGAACAAAGAAAAUCUGGGCCAGGCAGGCAUCAAAAGAAGUAGUCUUGCGCUCAACCAGAAAGUCUGUAAUCAUUUUAAGGGUA [A33G U49C A96G] | 1.37 |
| GUUAACGGUCAUAGGCCAUGGAAACUAGGAGCACCAUUUCGCUGCCAGUGAAGAAAUGAACAAAGAAAAUCUGGGCCAGGCAGGCAUCAGAAGAAAUAGUCUUGCGCUCAACCAGAAAGUCAGUAAUCAUUCUAAGGGUA [A90G U122A U132C] | 0.75 |
| GAUAACGGUCAUAGGCCAUGGAAACUAGGAGCACCAUUUCGCUGCCUGUGAAGAAAUGAACAAAGAAAAUCUGGGCCAGGCAGGCAUCAAAAGAAAUAGUCAUGCGCUCAACCAGGAAGUCUGCAAUCAUUUUAAGGGUA [U2A A47U U102A A116G U124C] | 0.04 |
| GUUAACGGUCAUAGGCCAUGGAGACUAGGAGCACCAUUUCGCUGCCAGUGAAGAAAUGGACAAAGAAAAUCUGGGCCAGGCAGGCAUCAAAAGAUAUAGCCUUGCGCUCAACCAGAAAGUCUGUAAUCAUUUUAAGGGUA [A23G A59G A95U U100C] | 1.6 |
